# Test results taken from ChEMBL document CHEMBL4888484, “Replenishing the malaria drug discovery pipeline: Screening and hit evaluation of the MMV Hit Generation Library 1 (HGL1) against asexual blood stage Plasmodium falciparum ,using a nano luciferase reporter read-out” (2022).
# Hit rate of the full screen: of about 150,000 compounds, about 540 (0.36%) showed an effect of 50% or more. The list shows a part of the results.
# Test system: Plasmodium falciparum
# Assay: Primary screen in NF54 nanoGlo assay, in single point, at 2uM, 72h; a lower Z score goes with more inhibition
# Type: functional, Erythrocyte
# Conditions: timepoint 72 hour
Compound,% Inhibition,Z score
CN1CC(=O)N2[C@@H](Cc3c([nH]c4ccccc34)C2(C)C)C1=O,0%,-0.05
O=C(C1CCOC1)N1CCOC(c2ccc(C(F)(F)F)cc2)C1 (stereo unspecified),-6%,0.64
CCCn1nc(C(=O)N(C)C[C@H]2COc3ccccc3O2)ccc1=O,-2%,0.36
CCc1cccc(C)c1NC(=O)N1CCS(=O)(=O)CC1,-10%,1.44
COCCN(Cc1ccsc1)C(=O)Cc1sc(C)nc1C,-8%,1.33
O=C(Nc1nc2c(Cl)cccc2n1CC(F)(F)F)[C@@H]1CCCO1,-2%,0.26
CCCN(CCC)C(=O)CCCC(=O)N[C@H]1CCc2c(O)cccc21,-5%,0.73
Cc1ccc(C(=O)N2CCN([C@@H](C)C(=O)N3CCOCC3)CC2)cn1,-14%,1.89
CCn1cc(OCC(=O)N(C)Cc2ccc(Cl)s2)cn1,-12%,1.54
CC(C)(C(=O)NC1CC2(C1)C[C@@H]2N)c1cccc(C(F)(F)F)n1 (stereo partly specified),7%,-1.09
CO[C@H]1C[C@H](NC(=O)N2CC[C@](C)(C(F)(F)F)C2)C1,-8%,0.82
C=CCN(CC(=O)N1CCNC1=O)CC(F)(F)F,-6%,1.21
O=C(Nc1n[nH]c2cc(F)ccc12)C(C1CC1)C1CC1,-14%,1.68
CCN1CC[C@H](Nc2nc(C(C)C)ccc2C#N)C1,0%,0
COc1nccnc1-c1ccc2ncccc2c1,-5%,0.73
COCCc1nc(C2CCC2)n(-c2cccc(C(=O)O)c2)n1,-10%,1.56
CCc1ccc(S(=O)(=O)N2CC[C@H](Oc3cccnn3)C2)s1,-4%,0.43
CCCc1cc(C(=O)N[C@@H](C)C2=CCCCC2)[nH]n1,-3%,0.51
COc1ccc(-c2ccc(C(=O)N3CC[C@H](N)C3)c(F)c2)cc1,-1%,0.15
CC[C@](C)(O)CNC(=O)c1cnn2c(-c3cccnc3)ccnc12,-3%,0.54
CC(=O)NC1(c2nc(C(C)C)no2)CCOCC1,26%,-2.94
O=C(CCc1cccs1)N1CCC[C@H](c2[nH]ncc2Cc2ccccc2)C1,1%,-0.11
Cc1cccc(-n2nc(C(=O)NC3CC3)c(=O)n(Cc3ccccc3C)c2=O)c1,-1%,0.12
Cc1csc([C@H](C)NC(=O)Nc2nnc(C(F)F)s2)n1,0%,0.04
CC1(NS(=O)(=O)c2ccc(OC3CCOCC3)c(F)c2)CCCCC1,-17%,1.85
O=C(CN(Cc1ccco1)S(=O)(=O)c1ccccc1)N1CCC(Cc2ccccc2)CC1,-6%,0.59
CC(CN1CCCC1=O)NC(=O)N1CCCC1C=Cc1ccccc1 (stereo unspecified),-8%,0.85

Compound,% Inhibition,Z score
CCN(C)C(=O)c1cccc(Nc2c(Oc3ccc4c(c3)OCO4)cnn(-c3cccc(Cl)c3)c2=O)c1,-11%,1.04
Cc1ccc(CCOC(=O)c2ccc(C#N)cn2)cc1,-1%,0.09
O=C(c1cc(Cl)c2c(c1)OCCCO2)N1CCN(Cc2nc(-c3cccs3)no2)CC1,11%,-1.33
Cc1ccc(CC(Cc2ccc(C)cc2)N(C)C(=O)CCc2c(C)nn(C)c2C)cc1,-4%,0.68
Cc1c(Cl)cccc1NC(=O)CN1N=C(C(=O)Nc2ccccc2)CCC1=O,31%,-4.41
CCNc1ccc(-c2noc([C@@H](C)c3cnn(C)c3)n2)cn1,-11%,1.51
Cc1nc(Cc2nc(-c3ccc4c(c3)OCCCO4)cs2)cs1,-2%,0.26
C#CCNC(=O)CNC(=O)c1cccc(Cl)c1C,-12%,2.3
CCc1noc(NC(C)=O)c1-c1ccc(C)c(S(=O)(=O)Nc2ccc(F)cc2C)c1,-9%,1.24
Cc1ccc([C@H](C)N(C)Cc2noc(Cc3ccccc3C)n2)cc1,-7%,1.01
NC(=O)N1CCCN(c2ncc(Br)c3ccccc23)CC1,-43%,5.08
O=C(NCCC1=CCCCC1)c1cccc(Oc2cc(-c3cccc(F)c3)ncn2)c1,3%,-0.51
Cc1ccc(CCC(=O)N2CC[C@H](N(C)C)[C@H](CCCO)C2)cc1C,7%,-1.33
OC(Cn1cnc2c(N3CCOCC3CC3CCC3)ncnc21)C1CCCO1 (stereo unspecified),-22%,3.22
O=C(NCCc1ccccc1)c1cc2n(n1)CCN(Cc1ccc(C(F)(F)F)cc1)C2=O,2%,-0.2
CCOC(=O)C1C2C(=O)N(c3ccc(C)cc3C)C(=O)C12 (stereo unspecified),0%,0.03
COc1ccc(C(CNC(=O)N2CC(C)C(C)(CO)C2)N2CCCCC2)cc1 (stereo unspecified),3%,-0.23
COc1cccc2c1CN(C(=O)NCc1cnc(C(F)(F)F)nc1)C2,-1%,0.22
CC/C=C(\C)CN1CCN(C(=O)c2ccco2)[C@H]2CS(=O)(=O)C[C@H]21,-10%,1.86
CCn1nccc1C(=O)N(Cc1cccc(OC)c1)C1CCCCCC1,-4%,0.72
O=C(NCC1CCN(C2CC2)CC1)[C@H]1CCc2nnc(-c3ccccc3)n2C1,4%,-0.74
CC(C)(C)NC(=O)N1CCCC[C@H]1c1nn(Cc2ccccc2)c2c1COCC2,-5%,0.53
OC(CNC(c1ccc(F)cc1)c1ncccn1)c1ccco1 (stereo unspecified),2%,-0.17
Cc1ccc(C)c(CNc2nc3ccncc3n(Cc3ccccc3)c2=O)c1,-10%,0.96
COC(C)(C)C(C)N1C(=O)[C@@H]2CC(F)(F)CN2C1=O (stereo partly specified),-2%,0.38
Cc1c(CNCCc2ccco2)c(C(=O)O)c(C)n1-c1ccc(Cl)cc1,1%,-0.11
